Laboratory results reported in PubChem BioAssay AID1030 (National Center for Advancing Translational Sciences (NCATS), 2008).
Values joined by “and” are separate entries in the source; they are usually repeats but may differ in a detail not shown here. Equal values may be shown once. In all, about 220,000 compounds went through this assay and about 16,000 (7.3%) were called active. The inconclusive results got no clear call from the source; some entries with a clear call stand among them for comparison. Calls come from the whole dose curve; as a rule, active = well fitted inhibition curve with a large enough effect (not every such curve was filed as active); inconclusive = small, poorly fitted or top-dose-only effect, or another doubt; inactive = no such curve, though single readings can be large or run the other way. A potency beside an inconclusive call is a rough fit, not a confirmed value.

Target: Aldehyde dehydrogenase 1A1 (Homo sapiens) (UniProt P00352)
Chain of UniProt P00352 (P00352 whole entry, looked up): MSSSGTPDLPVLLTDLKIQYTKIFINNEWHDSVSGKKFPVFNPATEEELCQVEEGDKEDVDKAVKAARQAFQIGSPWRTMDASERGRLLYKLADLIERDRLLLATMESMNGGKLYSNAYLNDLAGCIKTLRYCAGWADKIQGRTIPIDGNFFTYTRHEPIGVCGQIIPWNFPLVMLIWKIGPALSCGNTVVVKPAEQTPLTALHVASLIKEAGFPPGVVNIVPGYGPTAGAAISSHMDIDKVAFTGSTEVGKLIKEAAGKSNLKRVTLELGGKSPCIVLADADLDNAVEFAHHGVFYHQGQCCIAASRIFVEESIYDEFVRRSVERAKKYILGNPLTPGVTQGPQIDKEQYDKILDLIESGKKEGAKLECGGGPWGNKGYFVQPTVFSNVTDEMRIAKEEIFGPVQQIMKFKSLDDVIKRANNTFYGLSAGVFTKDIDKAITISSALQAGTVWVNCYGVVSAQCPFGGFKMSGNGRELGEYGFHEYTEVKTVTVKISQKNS
Assay: qHTS Assay for Inhibitors of Aldehyde Dehydrogenase 1 (ALDH1A1);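 for activity, negative = inhibition: plate controls were no enzyme wells and a reference inhibitor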
Details: Purified ALDH1A1, NADH fluorescence, propionaldehyde substrate; series mostly up to 75.3 µM
Potency is the fitted concentration of half-maximal effect; tags give direction and shape of the fitted curve.

| SMILES | Potency | activity, negative = inhibition |
| --- | --- | --- |
| O=C(COn1nnc2ccccc21)N1CCN(Cc2ccccc2)CC1 | inconclusive: 39.8 µM [inhibitor, single point] | – |
| COc1cc(C=O)ccc1OCc1c(C)noc1C | inconclusive: 14.1 µM [inhibitor, partial curve] | – |
| COc1cc(C(=O)CSc2nnc(-c3ccc(O)cc3)n2CC2CCCO2)ccc1NC(C)=O (stereo not drawn) | inconclusive: 39.8 µM [inhibitor, single point] | – |
| COc1ccc(S(=O)(=O)N2CCCN(Cc3cccc(F)c3)CC2)cc1 | inconclusive: 11.2 µM [inhibitor, partial curve] | – |
| CCOc1ccc(OCCSc2nnnn2-c2ccccc2)cc1 | active: 14.1 µM | – |
| CCOc1ccc(N2C(=O)CC(Sc3nc(CC(C)C)ccc3C#N)C2=O)cc1 (stereo not drawn) | inconclusive: 35.5 µM [inhibitor, single point] | – |
| Nc1c(N2CCCC2)c2ccccc2oc1=O | inconclusive: 7.08 µM [inhibitor, single point] | – |
| Cc1ccc(OCC(=O)N2N=C(C(F)(F)F)CC2(O)C(C)(C)C)cc1C (stereo not drawn) | inactive | – |
| Cc1cc(-c2csc(N)n2)c(C)n1Cc1ccco1 | inconclusive: 10 µM [inhibitor, partial curve] | – |
| O=[N+]([O-])c1ccc(Sc2n[nH]c(-c3ccccc3)n2)nc1 | inactive | – |
| O=C(NCCc1ccccc1)/C(=C\c1ccc([N+](=O)[O-])cc1)NC(=O)c1ccc(Br)cc1 | inconclusive: 39.8 µM [inhibitor, single point] | – |
| CCCCOc1ccc2c(c1)C(=O)c1cc(O)ccc1-2 | active: 39.8 µM | – |
| N#CC1(c2ccc(NC(=O)c3ccccc3F)cc2)CCCC1 | active: 5.01 µM | – |
| Cc1cc(=O)oc2cc(OCC(O)CN3CCN(c4ccc(F)cc4)CC3)ccc12 (stereo not drawn) | inconclusive: 25.1 µM [inhibitor, partial curve] | – |
| CC(C)(C)c1nnc(NC(=O)CS(=O)(=O)Cc2ccccc2)s1 | inconclusive: 35.5 µM [inhibitor, single point] | – |
| C/C(=N\NC(=O)c1ccccc1)c1ccc(N2CCOCC2)cc1 | inconclusive: 39.8 µM [inhibitor, single point] | – |
| O=C(c1cc(COc2ccc(F)cc2F)on1)N1CCSCC1 | inconclusive: 39.8 µM [inhibitor, single point] | – |
| Cc1ccc(NC(=O)CN2C(=O)N/C(=C/c3ccc(C)o3)C2=O)cc1 | active: 12.6 µM | – |
| CCCC(NC(=O)c1c(C)noc1C)C12CC3CC(CC(C3)C1)C2 (stereo not drawn) | inconclusive: 8.91 µM [inhibitor, single point] | – |
| CCCCNc1nc(C)nc2c1nc(-c1ccccc1)n2CCN1CCCC1 | inconclusive: 28.2 µM [inhibitor, partial curve] | – |
| COc1cc(CNC(C)(C)CO)ccc1OCC(=O)NC(C)(C)C | inactive | – |
| CN(C)[C@@H]1CCC[C@@H]1OC(=O)C(c1ccccc1)c1ccccc1 | inactive | – |
| CCCCOCC1CC(CC#CCN2CCCCC2)C(=O)O1 (stereo not drawn) | active: 25.1 µM | – |
| COc1ccc(C)cc1NS(=O)(=O)c1ccc2c(c1)n(C)c(=O)n2C | inconclusive: 31.6 µM [inhibitor, single point] | – |
| COc1ccc(/C=N/NC(=O)c2ccc(NC(=O)c3cccc([N+](=O)[O-])c3)cc2)c(OC)c1 | inconclusive: 39.8 µM [inhibitor, single point] | – |

| SMILES | Potency | activity, negative = inhibition |
| --- | --- | --- |
| O=C(c1cc(C(F)(F)F)cc(C(F)(F)F)c1)N1CCC[C@@]2(CCN(c3ccncc3)C2)C1 | inactive | – |
| COC(=O)C1=C(SC)N(c2ccccc2)C(c2ccccc2)CC1=O (stereo not drawn) | inactive | – |
| CN(Cc1ccccc1)C(=O)c1cc(-c2ccc(Br)cc2)on1 | inactive | – |
| CCOc1ccc(S(=O)(=O)Nc2ccc(O)c(Sc3ncn[nH]3)c2)cc1 | inactive | – |
| O=C(NC(=S)Nc1ccc(S(=O)(=O)N2CCOCC2)cc1)c1ccccc1[N+](=O)[O-] | active: 7.94 µM | – |
| COc1ccc(C2C3=C(CC(C)(C)CC3=O)Nc3n[nH]c(C)c32)cc1 (stereo not drawn) | inconclusive: 25.1 µM [inhibitor, partial curve] | – |
| CNC(=O)c1nnsc1S(=O)(=O)c1ccc(Cl)cc1 | active: 2 µM | – |
| CN(C)S(=O)(=O)c1cccc(NC(=O)c2cc3ccccc3o2)c1 | inconclusive: 31.6 µM [inhibitor, single point] | – |
| CC1=C(C(=O)OCC2CCCO2)C(c2ccc(C)o2)C2=C(CC(c3ccc(F)cc3)CC2=O)N1 (stereo not drawn) | inconclusive: 39.8 µM [inhibitor, single point] | – |
| O=C(CC1SC(=Nc2ccccc2)N(Cc2ccccn2)C1=O)Nc1ccc(Br)cc1 (stereo not drawn) | active: 7.08 µM | – |
| CCN1C(C#N)=C(C#N)N=C(C)CC1(C)C | inconclusive: 39.8 µM [inhibitor, single point] | – |
| COc1ccc(CNc2ccnc(-c3cccc(NS(C)(=O)=O)c3)n2)c(OC)c1 | inactive | – |
| Cc1ccc(CN2CCSc3ccc(C(=O)NCc4ccco4)cc32)cc1 | inconclusive: 35.5 µM [inhibitor, single point] | – |
| COc1ccc2nc(NC(=O)C3CCCN3S(=O)(=O)c3ccc(C)cc3)sc2c1 (stereo not drawn) | inactive | – |
| O=C(O)/C=C\C(=O)Nc1ccc(OC(F)F)cc1 | inconclusive: 39.8 µM [inhibitor, single point] | – |
| O=C(CSc1nc(C2CC2)nc2ccccc12)NCc1ccc2c(c1)OCO2 | inactive | – |
| Cc1occc1-c1nnc(SCC(=O)c2ccccc2)n1CC1CCCO1 (stereo not drawn) | inconclusive: 35.5 µM [inhibitor, single point] | – |
| COc1cccc(/C=N/NC(=O)c2cc(-c3ccc(C)cc3)n[nH]2)c1O | inactive | – |
| CC(C#N)Sc1nc2ccccc2c(=O)n1-c1ccccc1 (stereo not drawn) | active: 4.47 µM | – |
| CCCCCCN(CCCCCC)C(=O)Cc1c(-c2ccc(Cl)cc2)[nH]c2ccc(Cl)cc12 | inconclusive: 25.1 µM [inhibitor, partial curve] and inconclusive: 22.4 µM [inhibitor, partial curve] | – |
| CCOCCCNCc1cc(Cl)cc(Cl)c1OCC | inactive | – |
| CCN(C(=O)COC(=O)COc1ccc2c(C)cc(=O)oc2c1)C1CCS(=O)(=O)C1 (stereo not drawn) | inconclusive: 20 µM [inhibitor, partial curve] | – |
| C[C@H]1C(O)[C@@]23CCC4C5(C=[N+](CCO)C[C@]4(C)CCC5)C2C[C@@H]1C3 (stereo partly drawn) | inactive | – |
| Cc1occc1C(=O)Nc1cccc(C(=O)NCc2ccccc2)c1 | inconclusive: 39.8 µM [inhibitor, single point] | – |
| CCOc1cc(NC(=S)NCC2CCCO2)c(OCC)cc1NC(=O)CC(C)C (stereo not drawn) | inconclusive: 39.8 µM [inhibitor, single point] | – |

| SMILES | Potency | activity, negative = inhibition |
| --- | --- | --- |
| Cc1cccc([C@H]2[C@@H]3C=CC(C)C[C@@H]3C(=O)N2Cc2ccccc2)c1 (stereo partly drawn) | inconclusive: 31.6 µM [inhibitor, single point] | – |
| Cn1c(SCC(=O)Nc2ccc3nc(SCC(=O)NC4CC4)sc3c2)nnc1-c1ccccc1 | active: 10 µM | – |
| CCOC(=O)N/N=C/c1cn(Cc2ccc(Cl)cc2)c2ccccc12 | inactive | – |
| COc1ccc(C(=O)Nn2cnnc2)cc1 | inconclusive: 28.2 µM [inhibitor, single point] | – |
| COc1cc2c(cc1OC)CN(C(=O)CSc1nc(N)c(C#N)cc1C#N)CC2 | inconclusive: 44.7 µM [inhibitor, single point] | – |
| O=C(Nc1cccc(-c2cn3c(n2)SCC3)c1)c1ccc2ccccc2n1 | inactive | – |
| CCc1ccc2c(CN3CCN(S(=O)(=O)c4cccs4)CC3)cc(=O)oc2c1 | active: 12.6 µM | – |
| Cc1cccc(NC(=S)NCc2cccn2C)c1 | inactive | – |
| Cn1c(=O)c2[nH]c(CCCCC(=O)O)nc2n(C)c1=O | inconclusive: 8.91 µM [inhibitor, single point] | – |
| Nc1nc(CN2CCN(c3ccccc3)CC2)nc(N2CCCc3ccccc32)n1 | inconclusive: 25.1 µM [inhibitor, single point] | – |
| COc1ccc(CN=C(NS(=O)(=O)c2cccs2)SC)cc1 | inconclusive: 14.1 µM [inhibitor, partial curve] | – |
| CCCCN1C(=O)C(=O)N(CC(=O)NC2CCCc3ccccc32)C1=O (stereo not drawn) | inactive | – |
| COC(=O)/C(=N\Nc1ccc(Cl)cc1)Sc1nnc(-c2ccc(OC)cc2)n1C | inactive | – |
| CCCCNC(=O)CCC(=O)Nc1ccc2nc(N3CCN(C)CC3)cc(C)c2c1 | inconclusive: 28.2 µM [inhibitor, partial curve] | – |
| CCN1CCN(S(=O)(=O)CC2(C)C3CCC2(C)C(=O)C3Br)CC1 (stereo not drawn) | inactive | – |
| CO[C@H]1COC(=O)C/C=C\[C@@H](C)[C@H](OC)COC(=O)CCC[C@@H]1C | – | inactive: 2.46% [at 13.5 µM] |
| CC1(C)CC(=O)C(c2c[nH]c3ccccc23)C(=O)C1 | active: 20 µM | – |
| O=[N+]([O-])c1ccc(SCCO)nc1SCCO | inconclusive: 20 µM [inhibitor, partial curve] | – |
| COc1ccc(C(=O)COC(=O)CCN2C(=O)C3C4CCC(C4)C3C2=O)cc1 (stereo not drawn) | inconclusive: 39.8 µM [inhibitor, single point] | – |
| COc1cccc(-n2nc(C(=O)N3CCN(Cc4ccccc4)CC3)c3ccccc3c2=O)c1 | inconclusive: 17.8 µM [inhibitor, partial curve] | – |
| Cc1ccc(-c2cc(C(F)(F)F)n3ncc(C(=O)N4CCN(C)CC4)c3n2)cc1 | inconclusive: 35.5 µM [inhibitor, partial curve] | – |
| CCN(CC)c1ccc2cc(NC(=O)CCC(=O)O)c(=O)oc2c1 | inconclusive: 35.5 µM [inhibitor, single point] | – |
| O=C(CSc1nc2ccc(S(=O)(=O)N3CCOCC3)cc2[nH]1)N1CCOCC1 | active: 3.55 µM | – |
